Data set [1] can be described thus: Liver microsome stability. Conditions: human liver microsomes, drug 1.00 μM.
Data set [2] is described as follows: Liver microsome stability. Conditions: mouse liver microsomes, drug 1.00 μM.
The next data set concerns Coxsackie virus B3. The data set is described as follows: microbe, parasite or virus in culture.

Turning to `CC(C)C(=O)OC[C@@]1(F)O[C@@H](n2ccc(=O)[nH]c2=O)[C@H](OC(=O)C(C)C)[C@@H]1OC(=O)C(C)C` [EIDD-2954, [(2S,3S,4R,5R)-5-(2,4-dioxopyrimidin-1-yl)-2-fluoro-3,4-bis(2-methylpropanoyloxy)tetrahydrofuran-2-yl]methyl 2-methylpropanoate], the half-life in data set [1] and in data set [2] was less than 1 min each time.
`O=c1ccn([C@@H]2O[C@](F)(COP3(=O)OCc4ccccc4O3)[C@@H](O)[C@H]2O)c(=O)[nH]1` (stereo partly shown) [EIDD-2838]: in the data set with Coxsackie virus B3 (Coxsackie virus B3, Vero 76 cells), the response was half-maximal at 2760 nM (EC50).
Take `O=c1ccn([C@@H]2O[C@](F)(CO)[C@@H](O)[C@H]2O)c(=O)[nH]1` [EIDD-2749, 4′-fluorouridine]: in the data set with Coxsackie virus B3 (Enterovirus B, B3, Vero 76), the EC90 was greater than 380000 nM.

The values are drawn from patent US20260124226A1 (priority 2023, published 2026).
